Measurements as given in the supplement of paper PMC8728848.
The other results are listed elsewhere or left out.

What was measured:
Experiment in all cases: glycan array binding signal (z-score within array); higher = stronger binding
Details in all cases: glycan notation: IUPAC condensed, linker removed
[1] = molecular target: Fuc(a1-2)Gal
Method in brief: (§1)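 The binding signal is a Z-score computed within each array. Data were drawn from 3228 arrays in the Consortium for Functional Glycomics database, restricted to those with a known protein sequence. Scores were averaged over arrays of the same protein sequence at different concentrations or buffers, and over linkers, and negative values can be taken as non-binding.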

[2] = molecular target: Fuc(a1-2)Gal(b1-3)GalNAc
Method in brief: as §1

[3] = molecular target: Fuc(a1-2)Gal(b1-3)GalNAc(b1-3)Gal
Method in brief: as §1

[4] = molecular target: Fuc(a1-2)Gal(b1-3)GalNAc(b1-3)Gal(a1-4)Gal(b1-4)Glc
Method in brief: as §1

[5] = molecular target: Fuc(a1-2)Gal(b1-3)GalNAc(b1-3)Gal(b1-4)Glc
Method in brief: as §1

[6] = molecular target: Fuc(a1-2)Gal(b1-3)GalNAc(b1-4)[Neu5Ac(a2-3)]Gal(b1-4)Glc
Method in brief: as §1

[7] = molecular target: Fuc(a1-2)Gal(b1-3)[Fuc(a1-4)]GlcNAc
Method in brief: as §1

[8] = molecular target: Fuc(a1-2)Gal(b1-4)Glc
Method in brief: as §1

[9] = molecular target: Fuc(a1-2)Gal(b1-4)GlcNAc
Method in brief: as §1

[10] = molecular target: Fuc(a1-2)Gal(b1-4)GlcNAc(b1-3)Gal(b1-4)GlcNAc
Method in brief: as §1

[11] = molecular target: Fuc(a1-2)Gal(b1-4)GlcNAc(b1-3)Gal(b1-4)GlcNAc(b1-3)Gal(b1-4)GlcNAc
Method in brief: as §1

[12] = molecular target: Fuc(a1-2)Gal(b1-4)[Fuc(a1-3)]GalNAc(b1-3)Gal(b1-4)[Fuc(a1-3)]GlcNAc
Method in brief: as §1

[13] = molecular target: Fuc(a1-2)Gal(b1-4)[Fuc(a1-3)]GalNAc(b1-3)Gal(b1-4)[Fuc(a1-3)]GlcNAc(b1-3)Gal(b1-4)[Fuc(a1-3)]GalNAc
Method in brief: as §1

[14] = molecular target: Fuc(a1-2)Gal(b1-4)[Fuc(a1-3)]GlcNAc
Method in brief: as §1

[15] = molecular target: Fuc(a1-2)GlcNAc
Method in brief: as §1

[16] = molecular target: Fuc(a1-2)[Gal(a1-3)]Gal
Method in brief: as §1

[17] = molecular target: Fuc(a1-2)[Gal(a1-3)]Gal(b1-3)GlcNAc
Method in brief: as §1

[18] = molecular target: Fuc(a1-2)[Gal(a1-3)]Gal(b1-4)Glc
Method in brief: as §1

[19] = molecular target: Fuc(a1-2)[Gal(a1-3)]Gal(b1-4)GlcNAc
Method in brief: as §1

[20] = molecular target: Fuc(a1-2)[Gal(a1-3)]Gal(b1-4)[Fuc(a1-3)]GlcNAc
Method in brief: as §1

[21] = molecular target: Fuc(a1-2)[Gal(a1-4)]Gal(b1-4)GalNAc
Method in brief: as §1

[22] = molecular target: Fuc(a1-2)[GalNAc(a1-3)]Gal
Method in brief: as §1

[23] = molecular target: Fuc(a1-2)[GalNAc(a1-3)]Gal(b1-3)GlcNAc
Method in brief: as §1

[24] = molecular target: Fuc(a1-2)[GalNAc(a1-3)]Gal(b1-4)Glc
Method in brief: as §1

[25] = molecular target: Fuc(a1-2)[GalNAc(a1-3)]Gal(b1-4)GlcNAc
Method in brief: as §1

[26] = molecular target: Fuc(a1-2)[GalNAc(a1-3)]Gal(b1-4)[Fuc(a1-3)]GlcNAc
Method in brief: as §1

[27] = molecular target: Fuc(a1-2)[GalNAc(a1-4)]Gal(b1-4)GlcNAc
Method in brief: as §1

[28] = molecular target: Fuc(a1-3)GlcNAc
Method in brief: as §1

[29] = molecular target: Fuc(a1-3)[Gal(b1-4)]GlcNAc
Method in brief: as §1

[30] = molecular target: Fuc(a1-3)[Gal(b1-4)]GlcNAc(b1-4)Gal(b1-4)[Fuc(a1-3)]GlcNAc
Method in brief: as §1

[31] = molecular target: Fuc(a1-3)[Gal(b1-4)]GlcNAc(b1-4)Gal(b1-4)[Fuc(a1-3)]GlcNAc(b1-4)Gal(b1-4)[Fuc(a1-3)]GlcNAc
Method in brief: as §1

[32] = molecular target: Fuc(a1-3)[Gal3S(b1-4)]GlcNAc
Method in brief: as §1

[33] = molecular target: Fuc(a1-3)[GalNAc(b1-4)]Gal(b1-4)GlcNAc
Method in brief: as §1

[34] = molecular target: Fuc(a1-4)GlcNAc
Method in brief: as §1

[35] = molecular target: Fuc(b1-3)GlcNAc
Method in brief: as §1

[36] = molecular target: Gal(a1-2)Gal
Method in brief: as §1

[37] = molecular target: Gal(a1-3)Gal
Method in brief: as §1

[38] = molecular target: Gal(a1-3)Gal(b1-3)Glc
Method in brief: as §1

[39] = molecular target: Gal(a1-3)Gal(b1-3)GlcNAc
Method in brief: as §1

[40] = molecular target: Gal(a1-3)Gal(b1-4)GlcNAc
Method in brief: as §1

[41] = molecular target: Gal(a1-3)Gal(b1-4)[Fuc(a1-3)]GalNAc
Method in brief: as §1

[42] = molecular target: Gal(a1-3)GlcNAc
Method in brief: as §1

[43] = molecular target: Gal(a1-3)[Gal(a1-4)]Gal(b1-4)GlcNAc
Method in brief: as §1

[44] = molecular target: Gal(a1-4)Gal(b1-4)Gal
Method in brief: as §1

[45] = molecular target: Gal(a1-4)Gal(b1-4)GalNAc
Method in brief: as §1

B1: TbCVNHOa (Tuber borchii), Q5MK11 (protein)
chain: GSHIGPYMSYADSSRNAVLTNGGRTLRAECRNADGNWVTSELDLDTCIGNPNGFLGWGMQNFSHSSEDIKLEEGGRKLTCRPKTVDGGFRERQGIDLNRIQNVNGRLVFQ
- glycan array binding signal (z-score) [1]: -0.262
- glycan array binding signal (z-score) [2]: 0.076
- glycan array binding signal (z-score) [3]: -0.24
- glycan array binding signal (z-score) [4]: -0.223
- glycan array binding signal (z-score) [5]: 3.46
- glycan array binding signal (z-score) [6]: -0.251
- glycan array binding signal (z-score) [7]: -0.251
- glycan array binding signal (z-score) [8]: -0.283
- glycan array binding signal (z-score) [9]: -0.255
- glycan array binding signal (z-score) [10]: -0.3
- glycan array binding signal (z-score) [11]: -0.253
- glycan array binding signal (z-score) [12]: -0.27
- glycan array binding signal (z-score) [13]: -0.201
- glycan array binding signal (z-score) [14]: -0.263
- glycan array binding signal (z-score) [15]: -0.228
- glycan array binding signal (z-score) [16]: -0.29
- glycan array binding signal (z-score) [17]: -0.223
- glycan array binding signal (z-score) [18]: -0.18
- glycan array binding signal (z-score) [19]: -0.211
- glycan array binding signal (z-score) [20]: -0.213
- glycan array binding signal (z-score) [21]: -0.288
- glycan array binding signal (z-score) [22]: -0.124
- glycan array binding signal (z-score) [23]: 1.98
- glycan array binding signal (z-score) [24]: 0.217
- glycan array binding signal (z-score) [25]: 0.133
- glycan array binding signal (z-score) [26]: 0.143
- glycan array binding signal (z-score) [27]: -0.287
- glycan array binding signal (z-score) [28]: -0.282
- glycan array binding signal (z-score) [29]: -0.257
- glycan array binding signal (z-score) [30]: 0.357
- glycan array binding signal (z-score) [31]: -0.268
- glycan array binding signal (z-score) [32]: -0.265
- glycan array binding signal (z-score) [33]: -0.229
- glycan array binding signal (z-score) [34]: -0.265
- glycan array binding signal (z-score) [35]: -0.091
- glycan array binding signal (z-score) [36]: -0.273
- glycan array binding signal (z-score) [37]: -0.273
- glycan array binding signal (z-score) [38]: -0.244
- glycan array binding signal (z-score) [39]: -0.283
- glycan array binding signal (z-score) [40]: -0.254
- glycan array binding signal (z-score) [41]: -0.255
- glycan array binding signal (z-score) [42]: -0.258
- glycan array binding signal (z-score) [43]: -0.209
- glycan array binding signal (z-score) [44]: -0.242
- glycan array binding signal (z-score) [45]: -0.231
